Toxic doses and inconclusive results are not listed. Not every entry of the source has a single result; some have several. The list is limited to them. There may be further records. The values listed for one entry are repeats in other runs, samples, wells, individuals or studies.
Test system: L1210 leukemia ip in BDF1 mice, survival T/C
Test: NCI In Vivo Anticancer Drug Screen. Data for tumor model L1210 Leukemia (intraperitoneal) in B6D2F1 (BDF1) mice
Details: endpoint: mean survival time, higher = longer survival

SMILES: CN=C(N)c1ccc(NC(=O)c2ccc(C(=O)Nc3ccc(C(N)=NC)cc3)cc2)cc1
- T/C (dose: 7.5 mg/kg/injection, schedule: Q01DX Z (ip), vehicle: methylcellulose (MC)): 114 % of control and 174 % of control

SMILES: O=C(Nc1ccc(NC2=NCCN2)cc1)c1ccc(C(=O)Nc2ccc(NC3=NCCN3)cc2)cc1
- T/C (dose: 4.0 mg/kg/injection, schedule: Q07DX Z (ip), vehicle: saline): 111 % of control and 159 % of control

SMILES: O=C1N[C@@H]([C@H]2CC[C@H](Cl)CN2)C(=O)N[C@H]1[C@H]1CC[C@H](Cl)CN1
- T/C (dose: 2.7 mg/kg/injection, schedule: Q01DX009 (ip), vehicle: saline): 97 % of control and 342 % of control

SMILES: Cc1c(CNc2ccc(C(=O)NC(CC(=O)O)C(=O)O)cc2)ccc2nc(N)nc(N)c12 (stereo not drawn)
- T/C (dose: 0.03 mg/kg/injection, schedule: Q01DX009 (ip), vehicle: other): 114 % of control and 152 % of control

SMILES: O=NN(CCCl)C(=O)NC1CCSc2ccccc21 (stereo not drawn)
- T/C (dose: 90.0 mg/kg/injection, schedule: Q01DX001 (ip), vehicle: other): 91 % of control and 282 % of control

SMILES: O=C(O)C(CSC(c1ccccc1)(c1ccccc1)c1ccccc1)N=Cc1cccs1 (stereo not drawn)
- T/C (dose: 100.0 mg/kg/injection, schedule: Q01DX009 (ip), vehicle: saline): 106 % of control and 164 % of control

SMILES: CCN(CC)P(=O)(N1CC1C)N1CC1C (stereo not drawn)
- T/C (dose: 50.0 mg/kg/injection, schedule: Q01DX009 (ip), vehicle: saline): 103 % of control and 155 % of control

SMILES: Nc1nc(=S)c2[nH]c(N=Nc3ccc(S(=O)(=O)Nc4ncccn4)cc3)nc2[nH]1
- T/C (dose: 100.0 mg/kg/injection, schedule: Q04DX003 (ip), vehicle: Klucel (hydroxypropylcellulose) (HPC)): 108 % of control and 173 % of control
- T/C (dose: 400.0 mg/kg/injection, schedule: Q04DX003 (ip), vehicle: Klucel (hydroxypropylcellulose) (HPC)): 105 % of control and 151 % of control

SMILES: C1CN1c1nc(N2CC2)nc(N2CC2)n1
- T/C (dose: 0.13 mg/kg/injection, schedule: Q01DX010 (ip), vehicle: saline): 101 % of control, 105 % of control, 168 % of control
- T/C (dose: 0.38 mg/kg/injection, schedule: Q01DX001 (ip), vehicle: saline): 105 % of control and 163 % of control

SMILES: O=c1cc(CO)[nH]cc1O
- T/C (dose: 263.0 mg/kg/injection, schedule: Q01DX Z (ip), vehicle: saline): 112 % of control and 150 % of control
- T/C (dose: 400.0 mg/kg/injection, schedule: Q01DX009 (ip), vehicle: saline): 116 % of control and 153 % of control

Source: PubChem BioAssay AID248 (DTP/NCI, 2004)
